# Assay results as given in ChEMBL document CHEMBL4888484, “Replenishing the malaria drug discovery pipeline: Screening and hit evaluation of the MMV Hit Generation Library 1 (HGL1) against asexual blood stage Plasmodium falciparum ,using a nano luciferase reporter read-out” (2022).
# The whole screen tested about 150,000 compounds, of which about 540 (0.36%) showed an effect of 50% or more. The list shows a part of the results.
# Test system: Plasmodium falciparum
# Assay: Primary screen in NF54 nanoGlo assay, in single point, at 2uM, 72h; a lower Z score goes with more inhibition
# Format: functional, Erythrocyte
# Conditions: timepoint 72 hour
SMILES,% Inhibition [%],Z score
CC1CCC(C(C)C)C(OC(=O)c2ccccc2N)C1 (configuration not stated) [MERADIMATE],0,0.01
Cc1nc2c(c(N[C@@H]3[C@@H]4CCO[C@@H]4[C@H]3N3CCCC3)n1)CCC2,0,0.01
c1ccc2c(CNCCc3ccc4c(c3)OCO4)c[nH]c2c1,-9,1.75
CC(O)C(O)CN1CCCN(C(=O)Oc2ccccc2)CC1 (configuration not stated),-15,2.81
N#CC1(NS(=O)(=O)c2ccc(S(=O)(=O)F)cc2)CCC1,4,-0.49
CCOc1ccc(C[C@H]2C(=O)NC(=O)N(CCc3ccc(OC)c(OC)c3)C2=O)cc1,30,-3.4
COCCOC[C@H]1CCN(CC(F)F)C1,-9,1.35
N#Cc1ccccc1COc1cccc(C(=O)N2CCC3(CC2)OCCO3)c1,3,-0.47
CC(NC(=O)C1CC2CCCCN2C1)C(C)(C)C (configuration not stated),-9,1.26
O=C(c1ccc2nnnn2c1)N1C[C@H](c2ccccc2)[C@@H]2[C@H]1C1CCN2CC1,0,-0.02
CCN1CCC[C@H](NC(C2CCC2)C2CCC2)C1,35,-1.11
COc1ccc(CN2C[C@@H]3C[C@H](C2)c2c(-c4ccccc4F)ccc(=O)n2C3)cc1,-6,0.98
Cc1cc(CC(=O)N2CC(N3CCCC[C@@H]3C)C2)on1,-4,0.78
FC1(F)CCC12CN(Cc1cccs1)C2,-4,0.45
CC(C)Cn1cc(CN2CC(C)CC2c2cccnc2)cn1 (configuration not stated),-12,1.55
CC1(CNC2CCCC(C(F)(F)F)C2)OCCO1 (configuration not stated),-3,0.28
CCOCCCNC(=O)c1c(COc2ccc(C)cc2)n(CCN2CCOCC2)c(C)cc1=O,3,-0.28
Cc1ccccc1CC(=O)N1CCN(C)[C@@]2(CCNC(=O)CC2)C1,-13,2.28
COc1ccc(-c2nc(CN3C(=O)CN=C(c4ccccc4Cl)c4cc(Cl)ccc43)c(C)o2)cc1OC,-2,0.35
Nc1ncccc1CN1CCOC2(CCCC2)C1,-8,0.73
CCc1nncn1CCNC(=O)N[C@@H](C)Cc1cccc(F)c1,-3,0.38
O=C(NC[C@H]1CN2CCN1CC2)c1csc(Cl)c1,-6,0.93

SMILES,% Inhibition [%],Z score
CN1C[C@@H]2CCC[C@H]1CN(c1cc(C(N)=O)ccn1)C2,-15,1.66
C[C@H](NCCc1ccccc1F)C1CC1,-8,1.01
COc1cccc([C@H]2CN(C(=O)c3cccnc3O)[C@@H]3C4CCN(CC4)[C@H]23)c1,-7,1.06
c1cnc(CN2CCO[C@@]3(CCc4ccccc43)C2)nc1,-10,1.14
COc1cccc([C@H]2CN(C(=O)c3cccc(O)c3)[C@@H]3C4CCN(CC4)[C@H]23)c1,-12,1.61
CN1CC[C@H]2CCN(c3ncccc3Cl)[C@H]2C1,-5,0.7
CCN1CCN(C2CCN(C(C)C(=O)Nc3ccc(C#N)c(Cl)c3)C2)CC1 (configuration not stated),-5,0.95
CN(C)S(=O)(=O)c1cccc2c1CCNC2,3,-0.48
Cc1oncc1C(=O)N1C[C@@H]2CC[C@H]1CN(Cc1cscn1)C2,-7,1.12
C=CCNC(=O)c1c(COc2ccc(C)cc2)n(CCN2CCOCC2)c(C)cc1=O,1,-0.11
CC(C)c1ccccc1CN1CC[C@@]2(O)C[C@H]2C1,-16,1.44
CC(C)Cn1cc(C(=O)O[C@@H](C)C(N)=O)cn1,-16,3.01
COc1ccccc1NC(=O)N1C[C@@H]2C[C@H](C1)c1ccc(C3CCCCC3)c(=O)n1C2,-4,0.68
COc1cc(=O)n(C)cc1C(=O)N1CCC2(CC1)OCCO2,5,-1.01
Cc1nn(C[C@H](C)NCc2nnc(N)s2)c(C)c1Cl,-1,0.16
O=C1NCCC[C@@]12CCN(Cc1c(Cl)cncc1Cl)C2,-18,3.01
COC(CN1CCC2(CCCC2)C1)OC,-3,0.24
CN(C)C(=O)Oc1ccc(OCC#N)cc1,-7,0.77
C[C@H](NC(=O)N1CC2CCC1CN2)c1cncc(F)c1 (some centres not stated),-7,1.31
O=C(c1ccc(CO)cc1)N1C[C@@H](c2cccc(O)c2)[C@@H]2[C@H]1C1CCN2CC1,-5,0.92
CCOC(=O)Cn1nnnc1C1(N2CCOCC2)CCCCC1,-40,4.68
CC1CCCC(OC(C)C(=O)Nc2cccc(-c3noc(=O)[nH]3)c2)C1 (configuration not stated),3,-0.58

SMILES,% Inhibition [%],Z score
C[S+](C)c1c([O-])[nH]c(=O)n(-c2ccccc2)c1=O,-6,0.77
CCc1nccn1C[C@H](C)NCCc1scnc1C,-9,1.15
CC[C@H]1CCCCN1C(=O)c1cn(Cc2cccc(OC)c2)cc(C(=O)NCc2ccc(C)o2)c1=O,3,-0.39
O=C(CNc1ccc(Cl)c(F)c1)N1CCC2(CC1)OCCO2,28,-3.19
Cc1ncsc1C(=O)N[C@H]1COC[C@@H]1N1CCN(C)CC1,-6,0.97
Cc1nccn1CCN1CCN(C(=O)Cc2c[nH]c3ccccc23)CC1,2,-0.37
CCCCC1(CCCC)C(=O)NC(=Nc2ccc(C)cc2)NC1=O,40,-5.1
O=c1[nH]c2cc(NS(=O)(=O)c3ccc(C4CCCCC4)cc3)ccc2o1,38,-5.45
Cc1[nH]c2ccccc2c1C1CCN([C@@H](C)c2nnnn2C)CC1,-18,3.01
Cc1nc(CC(=O)N2CCN(Cc3nonc3C)CC2)cs1,-7,0.68
CN(C(=O)c1nn(Cc2ccccc2)c2nccc(-c3cccs3)c12)C1CCCCC1,-6,1.01
CCCCOCC(=O)N1CCCC2CN(C)CCC21 (configuration not stated),-12,1.21
C[C@@H](Cn1cncn1)NCc1cc(F)ccc1Br,-8,0.69
O=c1onc(-c2ncccn2)n1Cc1ccc(OCc2ccc(F)cc2)cc1,-29,3.35
C1CCC(c2nc([C@H]3CCOC3)n[nH]2)(N2CCOCC2)CC1,15,-1.94
CC(O)CN1CCN(C(=O)Cc2cccc3ccccc23)CC1C (configuration not stated),0,0.05
COCCN1C[C@H]2CN(Cc3cccnc3)CCN2C1=O,16,-1.85
Cc1cccc(C2(C(=O)NCCc3nc(=O)o[nH]3)CCCCC2)c1,0,0.03
Cc1[nH]c2ccccc2c1C1CCN(Cc2nnc(C3CC3)o2)CC1,6,-0.81
Cc1ccc([C@@H]2c3cccn3-c3ccccc3CN2C(=O)C2CCCC2)cc1,1,-0.14
CC(C)Cc1cc(C(=O)N2C[C@H]3c4ccccc4OC[C@@]3(C(=O)O)C2)[nH]n1,-6,1.02
Cc1ccccc1OC1CCN([C@H]2CN(C(=O)Cc3ccsc3)C[C@@H]2O)CC1,-18,1.65

SMILES,% Inhibition [%],Z score
COc1ccccc1Cn1cc(C(=O)NCCC2=CCCCC2)c(=O)c(C(=O)NCCC(C)C)c1,5,-0.92
c1ccc(-c2cncnc2NCC23COCCN2CCOC3)cc1,-7,1.32
Cn1cc(C(=O)n2ccnc2)c2ccccc21,-8,0.97
CCC1(NC(=O)c2cnn(Cc3ccc(OC)c(OC)c3)c2)CC1,32,-3.58
CCn1ccc(C(=O)N[C@@H]2CCC[C@H]2N(C)C)n1,-19,2.9
c1nc(CN2CCOC3CCCCC32)cs1 (configuration not stated),4,-0.53
CC(C)(C)c1noc(=O)n1Cc1nc(-c2ccc(F)cc2)no1,9,-1.88
Cc1nc(N2C[C@@H]3NCCO[C@H]3C2)sc1C,-6,0.53
COC[C@H](Cc1ccccc1)NCC(F)F,-10,1.32
COCCN(C)[C@@H](C)Cc1cccs1,-5,0.73
CN1CCC[C@@]2(CCN(C(=O)Nc3cccc(N(C)C)n3)C2)C1,-2,0.27
O=S(=O)(F)CCN(CCS(=O)(=O)F)CC1(c2ccc(F)cc2)CC1,2,-0.21
O=C(c1ccccc1)[C@H]1CCCN(Cc2nc3ncccn3n2)C1,-9,1.82
Cc1ncsc1CN1[C@@H]2CC[C@H]1CN(C)CC2,2,-0.3
CCn1c2ccccc2c2cc(CN3CCN(C(=O)COc4ccc5ccccc5c4)CC3)ccc21,-4,0.48
Cc1ncoc1C(=O)N1CC[C@@H]2CN(Cc3cccnc3)[C@@H]2C1,-14,1.87
C[C@@H](Cc1ccccc1Cl)NC(=O)NC(C(N)=O)C(N)=O,-2,0.23
COc1ccc(NC(=O)CN2C(=O)CN=C(c3ccc(F)cc3)c3c2sc(C)c3C)cc1,-9,1.18
c1ccc2c(c1)C[C@H](Cc1ccc3c(c1)CNCC3)CO2,3,-0.36
CCC(CC)CN1CC2(CCN(C)CC2)OC1=O,-1,0.15
